# Results: PubChem BioAssay AID686978 (National Center for Advancing Translational Sciences (NCATS), 2013)
# Out of some 420,000 compounds screened, about 64,000 (15%) were called active. The shares of active, inactive and inconclusive entries below differ from those in the screen. Calls follow the shape of the dose curve; as a rule, active = well fitted inhibition curve with a large enough effect; inconclusive = small, poorly fitted or top-dose-only effect; inactive = flat fitted curve, though single readings scatter. Potencies of inconclusive entries are left out as doubtful fits.
# Assay: qHTS for Inhibitors of human tyrosyl-DNA phosphodiesterase 1 (TDP1): qHTS in cells in absence of CPT; also: nearly all actives have a fitted effect of over 55% in size
# Settings: DT40 Tdp1-/- hTDP1 cells, no CPT, ATP luminescence, 48 h; series mostly up to 46.2 µM
# In short: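 Seeded 400 DT40-hTDP1 cells/well (vehicle DMSO, no 20 nM CPT); pinned compounds; ≥48 hr at 37 °C; CellTiter-Glo luminescence as viability measure.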
# Potency is read from the fitted curve at half-maximal effect; tags tell the direction and shape of the fitted curve.
row,SMILES,Potency
1,COc1cc(CNC2CCCc3ccccc32)cc(OC)c1OC (centres undefined),active: 20.6 µM
2,O=C(N/N=C/c1ccc(C(F)(F)F)cc1)c1ccc(O)cc1,"inconclusive [inhibitor, single point]"
3,CCOC(=O)c1ccc(NC(=O)CNNC(=O)COc2ccccc2C)cc1,"inconclusive [inhibitor, single point]"
4,Cc1cc(OCC(=O)Nc2ccc(N3CCN(C)CC3)cc2)ccc1Cl,inactive
5,Cc1cc(C)c2c(CC(=O)Nc3ccc(Cl)cn3)coc2c1,"inconclusive [inhibitor, partial curve, poor fit]"
6,CN(CC(=O)NCCc1ccc(F)cc1)Cc1ccccc1,"inconclusive [inhibitor, partial curve, poor fit]"
7,O=C(CC(c1ccccc1)c1ccccc1O)NCc1ccccc1Cl (centres undefined),active: 16.4 µM
8,C=CCNCCOc1ccc(C(C)(C)c2ccccc2)cc1,"inconclusive [inhibitor, single point]"
9,c1ccc(COc2ncnc3c2ncn3CCCNCC2CCCO2)cc1 (centres undefined),inactive
10,Cc1nc2c(-c3ccccc3)c(C)nn2c(C)c1CCC(=O)NCc1ccccc1Cl,"inconclusive [inhibitor, partial curve]"
11,CC(C)(C)OC(=O)N1CCN(C(=O)c2[nH]cnc2C(=O)Nc2ccccc2F)CC1,"inconclusive [inhibitor, full curve, poor fit]"
12,COc1ccc(OC)c(S(=O)(=O)NCC(c2ccc3c(c2)OCO3)N2CCOCC2)c1 (centres undefined),inactive
13,CCCOc1cccc(C2C(C(=O)c3cc4ccccc4o3)=C(O)C(=O)N2c2cc(C)on2)c1 (centres undefined),"inconclusive [inhibitor, single point]"
14,C[C@@H]1CN([C@H](C)CO)C(=O)c2cc(NC(=O)Cc3cn(C)c4ccccc34)ccc2O[C@H]1CN(C)C(=O)Nc1ccc2c(c1)OCO2,"inconclusive [inhibitor, single point]"
15,O=C(O)C1Nc2c(O)cccc2C2C=CCC12 (centres undefined),"inconclusive [inhibitor, single point]"
16,COC(=O)CNC(c1ccccc1)c1cc(Br)ccc1NC(=O)CNC(=O)OCc1ccccc1 (centres undefined),"inconclusive [inhibitor, single point]"
17,Cn1c(-c2ccccc2)cnc1NCc1ccc(-c2ccccc2)cc1,"inconclusive [inhibitor, single point]"
18,Cc1ccc(NC(=O)COC(=O)CCc2ccc(S(=O)(=O)N3CCOCC3)cc2)cc1F,inactive
19,Cc1cccc(N2CCN(C(c3ccccc3)c3nnnn3C(C)(C)C)CC2)c1C (centres undefined),active: 23.1 µM
